Measured values taken from PubChem BioAssay AID1814 (Broad Institute, 2009).
In all, about 300,000 compounds went through this assay and about 22,000 (7.3%) were called active. Inconclusive means that the source gave no clear call. Such entries were picked first, then a sample of the others. No stated cut-off is given here; in the data, active means activity score below about -60%; inconclusive means mostly about -28% to -61%; inactive means positive scores.

Test: Activators via SNCA 5'UTR binding, MLPCN (AID 1814)
Settings: alpha-synuclein 5'UTR reporter, activators screen; active compounds read low; tested at 7.5 µM

Compound	activity score
Cc1ccc(-n2cc(C(=O)c3ccc(F)cc3)nn2)cc1Cl	inconclusive: -48.4%
Nc1ccc(-c2nc3ccc(C(=O)O)cc3s2)cc1	inactive: 95.4%
Cc1ncc(C[n+]2csc(CCO)c2C)c(N)n1	inconclusive: -61.1%
O=C1CN(CC(=O)N2CCCCC2)c2ccccc2O1	inconclusive: -48.8%
Cc1cc(C(=O)CSc2n[nH]c(N)n2)c(C)n1-c1cc(F)ccc1F	inconclusive: -54.7%
COc1ccc(C(=O)NCC2OCCc3ccccc32)cc1 (centres undefined)	inconclusive: -60.1%
C/C(=N\NC(=O)c1ccccc1N)c1ccc(NC(=O)Cc2ccccc2)cc1	active: -67.8%
CC(=O)Nc1cccc(NC(=O)c2ccc(C)c([N+](=O)[O-])c2)c1	inconclusive: -54.9%
S=C(Nc1ccc(Cl)cc1Cl)N1CCCCC1	inconclusive: -59.8%
Cc1cc(C(=O)CN2C(=O)NC3(CCCC3)C2=O)c(C)n1-c1ccc2c(c1)OCO2	inconclusive: -51.1%
CCNS(=O)(=O)c1ccc(NC(=O)Nc2cccc(OC)c2)cc1	inconclusive: -53.3%
Cc1ccc(N=Nc2c(C)[nH]n(C(N)=S)c2=O)cc1C	active: -258%
CC(Cc1ccccc1)NC(=O)c1cc2ccccc2o1 (centres undefined)	active: -162%
COc1cccc(CNc2ccc(F)c(Cl)c2)c1O	active: -184%
Cc1csc(NC(=O)c2cc3c(s2)CCCCC3)n1	inactive: 91.9%
Cc1ccc(C(=O)NCCCN2CCOCC2)c(Cl)c1	inconclusive: -44%
O=[N+]([O-])c1cccnc1Oc1ccc(OCc2ccccc2)cc1	active: -78.7%
COc1cc2ccccc2cc1C(=O)Nc1ccc(Br)cn1	active: -175%
NCCCn1c(C(=O)c2cc(Cl)c(N)c(Cl)c2)c2ccc([N+](=O)[O-])cc2[n+]1[O-]	inactive: 100%
O=C(Nc1ccc2c(c1)C(=O)OC2)c1ccc(F)cc1F	active: -63.1%

Compound	activity score
N=C1/C(=C\c2ccc(-c3cccc(Cl)c3)o2)C(=O)N=C2SC=C(c3ccccc3)N12	inconclusive: -47.1%
COC(=O)c1ccc(NC(=O)c2cccc(C)c2)cc1	active: -64.8%
CC(=O)c1ccc(NC(=O)CSC(C)C)cc1	inconclusive: -60.6%
Fc1cc2[nH]c(=S)[nH]c2cc1Cl	inactive: 41.8%
Cc1cccc(Nc2ncnc3nc[nH]c23)c1	inconclusive: -58.4%
Cc1ccsc1C(=O)N1CCCC(CO)(Cc2ccccc2)C1 (centres undefined)	inconclusive: -46%
Cc1ccc2nc(N(CCCN(C)C)C(=O)c3ccc(S(=O)(=O)N4CCc5ccccc5C4)cc3)sc2c1	inactive: 87.8%
O=C1C(C=NCCCn2ccnc2)=C(O)c2ccccc21	inconclusive: -41.7%
Cn1c(=O)c(=O)n(C)c2cc(S(=O)(=O)N3CCCC3C(=O)Nc3ccccc3F)ccc21 (centres undefined)	inconclusive: -18.6%
COc1ccc(C(NC(=O)C(C)C)c2ccc3cccnc3c2O)cc1 (centres undefined)	inactive: 79.2%
Cc1cc(C)c(C(=O)/C=C/c2cccs2)c(=O)[nH]1	inconclusive: -39.7%
Cc1scc(C(=O)N/N=C/c2ccc([N+](=O)[O-])o2)c1C	inactive: 84.8%
O=C(CCn1cnnn1)Nc1ccc(F)cc1	inconclusive: -37.9%
Cc1ccc(-c2nc3cccnc3s2)cc1NC(=O)C1c2ccccc2Oc2ccccc21	inconclusive: -58.3%
COc1cccc(-c2nc(-c3ccccc3)no2)c1	inconclusive: -60%
O=C(Nc1ccc(F)c(Cl)c1)Nc1ccc(Cl)cn1	inconclusive: -49.7%
Cc1cccc(Nc2nc(CC(=O)O)cs2)c1	inconclusive: -60.9%
O=[N+]([O-])c1ccc(Cl)c(/C=N/n2c(C3CCCCC3)n[nH]c2=S)c1	inconclusive: -55.8%
N/C(=N\OC(=O)c1csnn1)c1ccc(C(F)(F)F)cc1	active: -67.4%
CCN(CC)C(=O)c1ccc2c(c1)N(Cc1ccccc1)C(=O)CS2=O (centres undefined)	inconclusive: -31%

Compound	activity score
CCNc1ccc(Br)cc(C(=O)/C=C/c2ccccc2Cl)c1=O	active: -67.7%
C/C(CC(=O)Nc1ccccn1)=N\NC(=O)c1ccccc1O	inactive: 71%
CCC1CCCCN1Cc1ccc(CNS(=O)(=O)c2ccc3c(c2)oc(=O)n3C)o1 (centres undefined)	inconclusive: -60.5%
COc1ccc(/C=C2/CCCC(C(=O)C(F)(F)F)=C2O)cc1OC	inconclusive: -58.4%
CN(C)c1ccc(C(=O)c2ccc(N(C)C)c3ccccc23)cc1	inactive: 89%
CSc1ccc(/C=C/C(=O)N2CCCN(C)CC2)cc1	inconclusive: -49.8%
O=C(OCc1nc2ccccc2s1)c1cccc(S(=O)(=O)N2CCOCC2)c1	inconclusive: -59.2%
Cc1cccc(-c2nc3cc(NC(=O)C4CCCO4)ccc3o2)c1 (centres undefined)	inactive: 72.5%
COc1ccc(OC)c(C2Nc3nc4ccccc4n3C(C)=C2C(=O)Nc2ccc(C)cc2C)c1 (centres undefined)	inconclusive: -57.8%
O=C(Nc1ccc(OCc2ccccc2)cc1)c1ccccc1	inconclusive: -58.7%
CC(C)Oc1ccc(C(=O)NCc2ccco2)cc1	inconclusive: -56.8%
Cc1c(C(=O)O)cccc1-n1c(C)cc(/C=N/Nc2ccc([N+](=O)[O-])cn2)c1C	inconclusive: -57.1%
O=C(NCc1ccco1)c1ccc(Cn2c(=O)c3ccccc3n(Cc3cccc(Cl)c3)c2=O)cc1	inactive: 64.3%
O=C(COc1cccnc1[N+](=O)[O-])NCc1cccs1	inconclusive: -34.3%
Cc1ccc(NC(=S)Nc2ccc(F)cc2)cc1	inconclusive: -60.4%
CCOc1c2ccoc2nc2c(OC)c(OC)ccc12	inconclusive: -59.6%
COc1cc(NC(=O)c2cc(OC)c(OC)c(OC)c2)ccc1NC(=O)c1cccs1	inconclusive: -57.1%
Cn1c2ccccc2c(=O)c2c(=O)n(-c3ccccc3)c(-c3ccc(C(C)(C)C)cc3)nc21	inconclusive: -56.5%
CC1CCN(S(=O)(=O)c2ccc(S(=O)(=O)NCc3cccnc3)cc2)CC1	inconclusive: -45.8%
